{"source": "paper PMC8546589", "molecules": {"B1": {"name": "EhAgo2-2 (endogenous) (protein, UniProt C4LVV2 1-937)", "chain": "MQPSIHDYFSNDQTIDKPVRERIDKDFYASLPKKPVEEPDCQKKDVYCNAFKVNFSSMNLINYEARFEPDTENTSLKRALLFAHFQRRVITDGRMVSVPEEVPEDRRNFQIKARSQQVFEVELVPATGSNDLDIQKANMLLKSIIIDGNKKMISWKKSFFDVSKPEEFTSDRGNRLAVLQGFSSTTQIFDTDPYLVIDKSFRCLRTQTYLDSIRSKDQDTIKKEFQPMVLYNSQTKRLEKIDDIDFGKNPSFSFTRKDGSSVSIAEYYKQRYQIEIRDMDQPLLVQKKIEKDSEGKEVEKQPCYFVPELMRLTGMSDDMRADNQFMRKLADLFSADPQKKMDSLKSIVDGNIQNIPDLKQWKINVEREPACFPSYVLHNPQIISKSRNIDVPSNRDWRTDIRNFNFYDLKPLDRWTAIVPSQCMSEFNSFEHQLANFYDRIKVSYRQPNIINLSGTNIDQYKPDLKNSSMVLAVSVTDSIYEQIKKFCVDENVPTQCIKPNTLRRQPPTPVIQMITLQMQSKMGGIPWKTEIDSSFADGMTVGIDVISAGKDREIVAIVSSVDKDFTVYKKSSVVEKKGLHTAGIHIGEFMKKALESYTEYNGSHPKKVIIYRGSANTGDLKNIQQGELVEVKKAITEYDQSIQFIYITVNNKHDMKFFSKDGNNFINPLPGTVITQGVTKTDVFQFYLVSHVPRKGLVKPSMYFVLENTIENLSQLSLYNFTYELTHLYFNGANSVCFPTPLYQANKFCKMLNDCGYVEGTRKSSRGGNGGFQRGGRGFGGGNGRGRGAERREDRRRDDRDRHDYDRRDDRDRRDYYDRRDDRDRRDYYDRRDDRDRHEYESSRRDDRDRHGYSSSRRDDRYDYESSRRDDRDRHGYSSSRRDDRDRYEESSRRDDRDRHGYSSSRRDDRGDRYDDRSPRRDDRSSNRRDDRDHHH"}, "B2": {"name": "His-NAP12 (protein, UniProt C4M8H9 1-264)", "chain": "MSIHSIDKINKVILSKNIDEYIDIVGGEVNENLEELKKIDKEIGEKEIEYQLECLKLEQESEKDIQEILKIRRAIINGTKHRTNDGIQECGISNFWIEVFNEVGLMGNLEVTKEEIDILQSLIDIEKHIKEIKRNEGKEEIYINIHYTFLFKENQFLSNSIFEFELEHCINRYGIIIEETRNYIPLSHFKWKKQIKEKRMFDLLENGGKNLHCYLHEALNNIDFGAIDMFFGINTQNLFLDSFSVSDDENDCSVDDGCVDYATH"}, "B3": {"name": "His-NAP07 (protein, UniProt C4M608 1-241)", "chain": "MSYQSSQLPEDESINRKLLQETNRSLKIAQAELTVKKVYKTMEYEKMMKILNERRKDVVVGLSDQKSEESQQSKPIKNDDVTSPKPQINNKGVPFFWIRALNAVSLFLSYNTVEEDLVALSYLNDIKITTLTPSFDMKSLTIKMGKELSFFFDKNPYFTNDHFTIRMIYRANENGERIGSTGRIKVITNGIDWKVNLLEINSSSFFNVFIQELVNEEDYEILDSVFDNFNTKAIQYFYQFN"}, "B4": {"name": "Myc-EhAgo2-2 (protein, UniProt C4LVV2 1-937)", "chain": "B1 chain"}}, "key": {"[1]": {"molecular_target": "T1, Myc-EhAgo2-2 (E. histolytica) (UniProt C4LVV2)", "T1 sequence": "B1 chain", "experiment": "co-IP; anti-c-Myc agarose IP from whole-cell lysate of E. histolytica lines overexpressing the Myc-tagged protein, 2 h at 4°C; Western blot of the eluate (custom anti-EhAgo2-2, anti-actin, anti-histone 3)"}, "[2]": {"molecular_target": "Myc-EhAgo2-2^ΔNLS-DR (E. histolytica) (UniProt C4LVV2)", "experiment": "co-IP; anti-c-Myc agarose IP from whole-cell lysate of E. histolytica lines overexpressing the Myc-tagged protein, 2 h at 4°C; Western blot of the eluate (custom anti-EhAgo2-2, anti-actin, anti-histone 3)"}, "[3]": {"molecular_target": "T2, Myc-NAP12 (E. histolytica) (UniProt C4M8H9)", "T2 sequence": "B2 chain", "experiment": "co-IP; anti-c-Myc agarose IP from whole-cell lysate of E. histolytica lines overexpressing the Myc-tagged protein, 2 h at 4°C; Western blot of the eluate (custom anti-EhAgo2-2, anti-actin, anti-histone 3)"}, "[4]": {"molecular_target": "T3, GST-NAP07 (E. histolytica) (UniProt C4M608)", "T3 sequence": "B3 chain", "experiment": "pull-down; GST-tagged bait bound from bacterial lysate to glutathione beads and washed; incubated with bacterial lysate containing the His-tagged prey, 15 min at room temperature then 1 h at 4°C; washed with GST-wash buffer (350 mM NaCl); eluted with glutathione; SDS-PAGE, Coomassie; only the target purified"}, "[5]": {"molecular_target": "T4, GST-NAP12 (E. histolytica) (UniProt C4M8H9)", "T4 sequence": "B2 chain", "experiment": "pull-down; GST-tagged bait bound from bacterial lysate to glutathione beads and washed; incubated with bacterial lysate containing the His-tagged prey, 15 min at room temperature then 1 h at 4°C; washed with GST-wash buffer (350 mM NaCl); eluted with glutathione; SDS-PAGE, Coomassie; only the target purified"}, "[6]": {"molecular_target": "T4, GST-NAP12 (E. histolytica)", "experiment": "pull-down; GST-tagged NAP bait (or GST-NAP12 prebound with His-NAP07) on glutathione-agarose beads incubated with whole-cell lysate of parasites overexpressing Myc-EhAgo2-2; eluate analysed by silver stain and anti-Myc Western blot; only the target purified"}, "[7]": {"molecular_target": "T5, prebound NAPs of GST-NAP12 with His-NAP07 (E. histolytica) (UniProt C4M8H9+C4M608)", "T5 sequence 1": "B2 chain", "T5 sequence 2": "B3 chain", "experiment": "pull-down; GST-tagged NAP bait (or GST-NAP12 prebound with His-NAP07) on glutathione-agarose beads incubated with whole-cell lysate of parasites overexpressing Myc-EhAgo2-2; eluate analysed by silver stain and anti-Myc Western blot; only the target purified"}}, "note": "These are yes or no findings as the source states them, for the method shown. In cells and extracts the contact can be indirect. Some results given as binding are weak or reduced against the parent protein; the word gives no strength. For some of these results: Where a sequence is shown, tags or fusion partners need not be part of it.", "data": [{"molecule": "actin (from UniProt P11426 1-376)", "values": [{"measurement": "binding", "setting": "[1]", "result": "no binding"}, {"measurement": "binding", "setting": "[2]", "result": "no binding"}]}, {"molecule": "B1", "values": [{"measurement": "binding", "setting": "[3]", "result": "binds"}]}, {"molecule": "B2", "values": [{"measurement": "binding", "setting": "[4]", "result": "binds"}]}, {"molecule": "B3", "values": [{"measurement": "binding", "setting": "[5]", "result": "binds"}]}, {"molecule": "B4", "values": [{"measurement": "binding", "setting": "[6]", "result": "binds"}, {"measurement": "binding", "setting": "[7]", "result": "binds"}]}]}
